According to the supplement of paper PMC10338343:
± gives the standard deviation. Whole data set: some 6,600 sequences, median “pre-steady-state target cleavage rate” near 0.07, cut for the highest 2% near 0.72. The entries are a selection whose mix differs from that of the whole data set.

tested on: MIWI (PIWIL1) piRISC loaded with Kctd7 piRNA (30 nt); test: pre-steady-state target cleavage rate (min^-1); MIWI and MILI are mouse PIWI proteins and EfPiwi is from a freshwater sponge; tags in brackets are library labels; higher = faster piRNA-guided slicing of the target; conditions: guide: Kctd7 piRNA 5'p-UGUUAAUCUCUCAGAGAAGGUGACAGUGAU; auxiliary factor: 500 nM mouse GTSF1
Method: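 Cleave-'n-Seq: a library of target RNAs (target site embedded in constant flanks, ACAGCATTCCGCGTTAGTGATATCCG... 5' flank; DNA-blocked outside the site) at 0.1 nM was incubated with 1 nM active mouse MILI or MIWI piRISC (synthetic 5'-monophosphorylated piRNA guide) with or without 500 nM mouse GTSF1 at 33 °C for 1 min to 16 h. Uncleaved targets were sequenced and normalised to non-target controls, and the pooled three trials were fitted to a burst-and-steady-state model to give the pre-steady-state cleavage rate (min^-1; k3 is constrained to at most 1e-4). Sequence is the target site only; target names encode pairing extent (gX:gY) and contiguous / 1-mismatch / 2-mismatch / bulge geometry. Fits with R² ≤ 0 are excluded.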

Row | Sequence | pre-steady-state target cleavage rate
1 | UUGUCUGUCACCUUCUCUGAGAGAUUUUGA | 0.034 ± 0.013
2 | AUCACUGUCACCUUCUCUGAGAGUAAAUGA | 0.0743 ± 0.027
3 | UACACUGUCACCUUCUCUGAGAGUUUUUGA | 0.119 ± 0.036
4 | AUCACUGUCACCAUCUCUGACAGAUUAACA | 0.186 ± 0.022
5 | UAGUGAGUCACCUACUCUGAGAGAUUAUCA | 0.244 ± 0.051
6 | UACUCUGUGACCUUCUCUGAGAGAUUAACA | 0.58 ± 0.026
7 | UAGUGAGUCACCUUCCUCUGAGAGAUUAACA | 0.217 ± 0.019
8 | UAGUGAGUCUCCUUCUCUGAGAGAUUAACA | 0.262 ± 0.023
9 | AUCACUGUCACCUUCUCUGAGGAGAUUAACA | 0.022 ± 0.0084
10 | UUCACUGUCACCUUCUCUGAGAGACUAACA | 0.282 ± 0.032
11 | UAGUGAGUCACCUUCUCUCAGACAUUAACA | 0.0358 ± 0.0085
12 | UACACUGUCACCUUCUCUCACAGAUUAACA | 0.0406 ± 0.011
13 | AUCACUGUCACCUUCUCUGAGAGAUUACA | 0.329 ± 0.051
14 | UUCACUGUCACGUUCUCAGAGAGAUUAACA | 0.172 ± 0.013
15 | UAGACUGUCACCUUCACAGAGAGAUUAACA | 0.0493 ± 0.0097
16 | UAGUCUGUCACGAUCUCUGAGAGAUUAAGA | 0.0282 ± 0.0053
17 | UAGUGACAGUCCUUCUCUGAGAGUAUUAACA | 0.0116 ± 0.0023
18 | UUCUCUGUCACCUUCACUGAGAGAUUAACA | 0.392 ± 0.021
19 | UUCACUGUCACCUUCUCUGUGAGAUAAACA | 0.147 ± 0.02
20 | UUCACUGUCACCUUCUCUGAGAGAUUAAGCA | 0.228 ± 0.029
21 | AUCACUGUCACAUUCUCUGAGAGAUUAACA | 0.799 ± 0.035
22 | UAGUGACAGUCCUUAUCUGAGAGAUUAACA | 0.0135 ± 0.0037
23 | UAGUGUGUCACCUUCUCUGAGACUUUAACA | 0.0528 ± 0.01
24 | AUCACUGUCACCUUCACUCAGAGAUUAACA | 0.0516 ± 0.009

Row | Sequence | pre-steady-state target cleavage rate
25 | UAGUCUGUCACCUUCUCUGAGGAGAUUAACA | 0.00857 ± 0.0043
26 | UAGUGAGUCAGCCUUCUCUGAGAGAUUAACA | 0.176 ± 0.02
27 | UAGACUGUCACCUUCUCUGAGAGUUUAUCA | 0.0519 ± 0.016
28 | UAGUCUGUCACGUUCUCAGAGAGAUUAACA | 0.165 ± 0.013
29 | AUCACACUCACCUUCUCUGAGAGAUAUUGA | 0.047 ± 0.016
30 | UAGUGAGACACCUUCUCUGAGAGAUUUUGA | 0.0111 ± 0.0043
31 | AUCACUGUCACCUUCUUGAGAGAUUAACA | 0.174 ± 0.051
32 | UAGACUGACACCUUCUCUGACAGAUUAACA | 0.275 ± 0.026
33 | UAGUCUGUCACCUUCUCAGAGUGAUUAACA | 0.0145 ± 0.0045
34 | UAGUGACAGUCCUUCUCUGACAGAUUUACA | < 0.0001
35 | AUCACUGUCACCUUCUGUGAGAGAUUAUGA | 0.0197 ± 0.0096
36 | UAGACUGUCACCUUCACUGAGAGAUUAAGA | 0.307 ± 0.049
37 | UAGUCUGUCACCUUCUCUGAGUGAAUAACA | 0.0121 ± 0.0043
38 | UAGUGACUCACCUUCUCUGAGAGAUAAAGA | 0.0384 ± 0.0094
39 | UAGUGAGUCACGUUCUCUGAGAGUUUAACA | 0.164 ± 0.024
40 | AUCACUGUCACCUUCUCUGACUGAUUAACA | 0.0265 ± 0.0055
41 | AUCACUGUCACCUUCUCUGUGAGAUAUUGA | 0.00942 ± 0.0045
42 | UAGUGACAGUCCUUCUCUGAGAGGAUUAACA | 0.00923 ± 0.0021
43 | UUCACUGUCUCCUUCUCUGAGAGAUAAACA | 0.244 ± 0.036
44 | UAGUGUGUCACCAACUCUGAGAGAUUAACA | 0.306 ± 0.035
45 | UAGUGACACACCUUCACUGAGAGAAUAACA | 0.0335 ± 0.0091
46 | UAGUGACUCACCUUCUCUGAGAGAUCUAACA | 0.319 ± 0.073
47 | UAGUGACUGAGCUUCUCUGAGAGAUUAACA | 0.0278 ± 0.005
48 | UACACUGUCACCUUCUCUGUCAGAUUUUGA | 0.012 ± 0.0077

Row | Sequence | pre-steady-state target cleavage rate
49 | UAGUCUGUCACCUUCUCUGACAGUUUAACA | 0.0307 ± 0.005
50 | UUCACUGUCACCUUCUCUGAGAAUUAACA | 0.296 ± 0.084
51 | UAGUGACUCACCUUCUAUGAGAGAUUAACA | 0.107 ± 0.013
52 | UAGUCUGUCACCUUCUCUGACUGAUUAACA | 0.024 ± 0.0061
53 | AUCACUGUCACCAAGUCUGAGAGAUUAAGA | 0.0825 ± 0.019
54 | UUCACUGUCACUCUUCUCUGAGAGAUUAACA | 0.506 ± 0.026
55 | UAGACUGUCACCUUCUCUGAGAGAUAUUCA | 0.034 ± 0.0074
56 | UAGUCUCUCACCUUCUCUGAGAGAUUUACA | 0.0629 ± 0.011
57 | UAGUGACACACCUUCUCUGAGAGAAUUACA | 0.0648 ± 0.021
58 | UUCACUGUAACCUUCUCUGAGAGAUUAACA | 0.606 ± 0.028
59 | AUCACUGUGUCCUUCUCUGAGAGAUUUUGA | 0.0439 ± 0.014
60 | AUCACUGUCACCUACUCUGAGAGAUUAUGA | 0.0815 ± 0.019
61 | UUCACUGUCACCUUCACUGAGAGUUUAACA | 0.426 ± 0.072
62 | UAGUGAGUCACGUUCUCUGAGAGAUUAACA | 0.602 ± 0.029
63 | UUCACUGUCACCUUCUCUGUGUGAUUAACA | 0.0241 ± 0.01
64 | UAGUGACAGUCCCUCUCUGAGAGAUUAACA | 0.0306 ± 0.0097
65 | UACACUGUGACGUUCUCUGAGAGAUUAACA | 0.638 ± 0.035
66 | UAGUCUGUCACCUUACUCUGAGAGAUUAACA | 0.524 ± 0.032
67 | UAGUGAGUCACCUUCUCUGAGAGAAAUUGA [g7:g24:cont:t1A] | 0.0251 ± 0.0092
68 | UACACUGUCACCUUCUCUGUCAGAUUAACA | 0.0245 ± 0.008
69 | UAGUCUGUCACCUUCUCUGAGUAGAUUAACA | 0.00482 ± 0.0032
70 | UACACUGUGACCUUCUCUCAGAGAUUAACA | 0.0687 ± 0.012
71 | UAGUGACAGUGGAAGAGACAGUGAUUUACA | < 0.0001
72 | UAGACUGACACCUUCUCUGAGAGAAUAACA | 0.306 ± 0.064
